Reference: publication PMC12136788
Changes are numbered by the printed parent chain. Some of the results follow.

T1: UNK ZnF1-3 (human, UniProt Q9C0B0 31-174)
T1 sequence: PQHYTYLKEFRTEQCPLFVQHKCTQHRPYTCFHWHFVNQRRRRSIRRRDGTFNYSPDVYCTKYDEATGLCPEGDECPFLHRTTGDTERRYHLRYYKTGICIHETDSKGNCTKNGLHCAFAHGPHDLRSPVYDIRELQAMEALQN

B1: 63823771_63823891_5435_3pUTR_ENSMUSG00000027823_ENSMUST00000029405|mouse|control|control (ssRNA)
RNA: GGGAGUUCUACAGUCCGACGAUCCAGAAAACCUGAAUCCAGCUCCUGCUCUGCCAAUAGUUAGCAGUUAUGAAUACUUAUCUGUUGUCAAAACAGAAAUAUAUUCUAAUAGCUCUUCCAAAAAUGCAAAGUAAAGUGAAAGUCCAACAGAGGAUUGAGCAUCA
B2: 28789440_28791678_4005_3pUTR_ENSG00000108582_ENST00000225719|human|control|control (ssRNA)
RNA: GGGAGUUCUACAGUCCGACGAUCUGUCUAUUAGACUUGAUUGAGCAGAUGCACCAAAUAAUGCAAGCUGUUAGGAUCAAUGCCGACAUAGUAGCACCUGAUACAGUUACCACAAGCUCCCUUGGCAAACCAAAUAUCCGGUUACAACAGAGGAUUGAGCAUCA
B3: 106417281_106417401_1343_ncRNA_ENSMUSG00000055407_ENSMUST00000127492|mouse|control|control (ssRNA)
RNA: GGGAGUUCUACAGUCCGACGAUCCAUCCAUGCUGGCCCUGCCUUCCUGCGUGUGUCACGCUGAUCUGCACCGGACGCCUUUCCAGCUGCAGGACCACCCUCCUGGGUCUGGGAUUGGGCUGGGGGCAGAGGCUUCUCUUCGUGCAACAGAGGAUUGAGCAUCA
B4: chr2:158287933:158287934:+_ENSMUSG00000027652_ENSMUST00000141497|mus_hu|motif|central (ssRNA)
RNA: GGGAGUUCUACAGUCCGACGAUCAAGAGGUUGUUCCAGCAUUGCCAGGAUGACACUGUUAUCCAAGACAAAGUACCGGAAACGGUGCUUGUUUAUGGUUGGCAGCCUGGAGUAUUUAAUCAAAGUGGUCUCAUUCACAAGACUCAACAGAGGAUUGAGCAUCA
B5: chr2:181041410:181041411:-_ENSMUSG00000027581_ENSMUST00000103045|mus_mus|FALSE|FALSE (ssRNA)
RNA: GGGAGUUCUACAGUCCGACGAUCAGCUGAGGGGUACAGGGGAGCAGAUAGGAGCAGGCACAAAAUUCGCAUCUAGACAGAAUUGAAAACAAAAACAAAACCCGAAAACGUUCUUGUCGCCGCUGGGUCCAAUACUCCUUAGCCCAACAGAGGAUUGAGCAUCA
B6: chr11:87793471:87793472:-_ENSMUSG00000020483_ENSMUST00000020775|mus_mus|mus_mus_mus_hu_False|58_78 (ssRNA)
RNA: GGGAGUUCUACAGUCCGACGAUCUGGACUUGAAAAUAAAAGAAUAAGCUGGAUCCCCCCACCCCUUACAUUGUCAACCCUAUGCGAGAGUUUUGAAGGCGACUCAUGAAAAUCAGCAGCUCAAACGGCAAUGACCACCCCACCCAACAGAGGAUUGAGCAUCA
B7: chr3:152122376:152122377:+_ENSMUSG00000039068_ENSMUST00000106100|mus_mus|FALSE|FALSE (ssRNA)
RNA: GGGAGUUCUACAGUCCGACGAUCAAACAAACAUAUCCACAUCGUUUAUUUCUCACAGUUCUCCCGACAAAUGAACAUUAUUCAAGAACAUACUGUAUACACAGAUAAGAAACAUACAAAAUGUUUUAAAUGAUGCACAACAAACAACAGAGGAUUGAGCAUCA
B8: chr5:128448638:128448639:+_ENSG00000066583_ENST00000173527|hu_mus|hu_hu_hu_mus_False|58_68 (ssRNA)
RNA: GGGAGUUCUACAGUCCGACGAUCGGCACUCGCCUUAAUUAGGUUCUGAAUUUCCUUGAACUUCGGGUGGUCCUUAUCAGCUACCAGCUGUAGGAGGACAGCCUCACUAGUGGUCACGAUGAUCCCAGUGCGGGCAAGACGCUCCAACAGAGGAUUGAGCAUCA
B9: chr3:148802587:148802588:-_ENSG00000071794_ENST00000310053|hu_mus|hu_hu_hu_mus_False|18_78 (ssRNA)
RNA: GGGAGUUCUACAGUCCGACGAUCUCCAACAACUUGUCCUCUCAUAGUUCCAAAUAAAACGGAAUCUUGCUCUUCAUCACUCGUUAGGAAGUCAUCUGGAGGAAUAAUGUCUUGGAAUUCAAAACGUGGCAAGAAAGUUGAGUACAACAGAGGAUUGAGCAUCA
B10: chr22:32879901:32879902:+_ENSG00000100225_ENST00000397426|hu_mus|hu_hu_hu_mus_False|48_108 (ssRNA)
RNA: GGGAGUUCUACAGUCCGACGAUCCUCUGCCAUAUGCAUGGCAUCCUGAAUUGACUCAGCUUCAACAUUUUGACUAGGCCCUUCCAUACUGUCGUCAGUCCAGGCAUCAAAUGGGGUGGCCUGUCCUUGGGAUGAAUCAGUCCCCAACAGAGGAUUGAGCAUCA
B11: chr1:220276048:220276049:+_ENSG00000067704_ENST00000302637|hu_hu|hu_hu_hu_mus_True|8_108 (ssRNA)
RNA: GGGAGUUCUACAGUCCGACGAUCGCAAACAGCUUCAUUGGCGGGAAUUGUCCAAGGCUGGGUGGUCCAAACUAAAACGCUAACAGGGGAUGAGGCAUCUGUAAGAGACUCCAACUUCGGAGGAGGUUUUAAGAGAGGGAAUCUCAACAGAGGAUUGAGCAUCA
B12: chr3:148802587:148802588:-_ENSG00000071794_ENST00000310053|hu_mus|hu_hu_hu_mus_False|8_68 (ssRNA)
RNA: B9 RNA with G60C, G61A, U67A, G68C, C69U, C124U, C129A
B13: chrX:98862621:98862622:+_ENSMUSG00000034160_ENSMUST00000044475|mus_hu|mus_mus_mus_hu_False|58_58 (ssRNA)
RNA: GGGAGUUCUACAGUCCGACGAUCCUGCAUCUCCUUUAGAGUGUUUCCCAUAUUAGAGUAGGCAUCAGCAAAGGUAGGACUAAUUCGAAUAGCCUCCUUAUAAUGCAUCAGAGCUUCCUGCAGUUUUCCCUGCUGCUGCAGUACCAACAGAGGAUUGAGCAUCA
B14: chr2:11404176:11404177:-_ENSMUSG00000026773_ENSMUST00000114846|mus_hu|FALSE|FALSE (ssRNA)
RNA: GGGAGUUCUACAGUCCGACGAUCCAGGAGGCAGCGCAUGACAGCCUGGUGGGAGAUGACGAGGACAUUGCCCUGACGUUCCAGCUCCAUGAUGACAGGCUCCAGCCGCUGCACCAGGUCCUGGUAUGACUCCCCACCAGGAUACAACAGAGGAUUGAGCAUCA
B15: chr18:21005031:21005032:-_ENSMUSG00000033382_ENSMUST00000025177|mus_hu|motif|central (ssRNA)
RNA: GGGAGUUCUACAGUCCGACGAUCAAACUUCCAAAGCAAUGACAAAUCAGUCAACAAAAGUAGAACUUUCAAAGGGUUUCGGAAAGCCACUUCCACUGUAAUUGGUUCUUCUACAACUGCAAGUGGAAAUCUUGAAUUAUCUGACAACAGAGGAUUGAGCAUCA
B16: chr4:95690885:95690886:+_ENSMUSG00000028572_ENSMUST00000156910|mus_mus|mus_mus_mus_hu_False|38_108 (ssRNA)
RNA: GGGAGUUCUACAGUCCGACGAUCUUUAUUUUUAGAAAAAUACCAUGCUAAAAUAUUUUCAAAGGCUUAUUUUAUUUUACCAGAAGUCACAGGCAAGCAGACACCAUAAGAAUAUAUGAAAAUGAAACUCAACAAUAUAACUGUCAACAGAGGAUUGAGCAUCA
B17: chr2:130852214:130852215:+_ENSMUSG00000027312_ENSMUST00000028781|mus_mus|motif|central (ssRNA)
RNA: GGGAGUUCUACAGUCCGACGAUCCAGGUGGAUCUUUGUGAGUUCAGUCCAGCCUGAUCUACAUAGUGAGUUCCAGGCCAGCGGGGACUACACAGUGAGACCCUGUCUCCAAAAACCAAAACAAAACAAAACAAGGCCCCCAUCCAACAGAGGAUUGAGCAUCA
B18: chr17:64801638:64801639:+_ENSG00000154229_ENST00000413366|hu_mus|hu_hu_hu_mus_False|18_68 (ssRNA)
RNA: GGGAGUUCUACAGUCCGACGAUCUAUAUAUAUAUAUACAUAUGUACACAUAUAUAGUAAAACCCUAAUCUAUCACGUAAAGUAGCCAUUCAUUUUUAAAAUUACAUCUACAUUAAAAAAGUAAUCUAUCUGAUAGAGUGCCAGCAACAGAGGAUUGAGCAUCA
B19: chr10:133753640:133753641:+_ENSG00000175470_ENST00000482010|hu_mus|FALSE|FALSE (ssRNA)
RNA: GGGAGUUCUACAGUCCGACGAUCAGUUUUAUCAUUUGUAGAGAGUAGAAAAUGAGCAGCAUUCUGUUGCGGUAACCACCUGAUUUUAUUAAUUUUUUCUUCAAUUUCUAGACUUUUCAAAUAGUCAAACUCUGGCUCAUGACUCAACAGAGGAUUGAGCAUCA
B20: 59659724_59663069_2067_3pUTR_ENSMUSG00000039585_ENSMUST00000128341|mouse|control|control (ssRNA)
RNA: GGGAGUUCUACAGUCCGACGAUCGAACACCAAUGGACAAAGUCUUAGUAUCUUGUUCCAAAUCUUUACUAUUCAGAAGUGCAUGAUUAAUACGAAACACUAUCCAGUCAAACAGAGCACUAUAUAAAGACUUAGCCAUGGAGUCAACAGAGGAUUGAGCAUCA
B21: 28147991_28148111_2029_3pUTR_ENSMUSG00000031483_ENSMUST00000033873|mouse|control|control (ssRNA)
RNA: GGGAGUUCUACAGUCCGACGAUCCAGUUUCCUAGGGUGACUCACUGGAGCCGACUCUCAAGUGGCUGCCUGCUCUCUUCAUCAGUGUCAGACAAAGCCCCAGCACAGGCCACAGGCACUACUACUUGGGUGUCAUCUGGCUGGCAACAGAGGAUUGAGCAUCA
B22: chr1:60041781:60041782:+_ENSMUSG00000041040_ENSMUST00000036540|mus_hu|mus_mus_mus_hu_False|18_28 (ssRNA)
RNA: GGGAGUUCUACAGUCCGACGAUCAAGUUUACAAUAGUAAAGUAAAUGCAGUAGUGGCAAAUUUUCUUUUAUUUUCCUUCACAAAAGAAAAUCUUUAUAACCCAGUCCAAUCCCAGACAGAGAAAGCAGCUAUAAAUUCUGACUCAACAGAGGAUUGAGCAUCA

Molecular target: T1, UNK ZnF1-3
Assay: nsRBNS (natural sequence RNA bind-n-seq); RBNS binding buffer (assumed for nsRBNS): 25 mM Tris pH 7.5, 150 mM KCl, 3 mM MgCl2, 0.01% Triton X-100, 500 ug/ml BSA, 20 U/ml SUPERase-In, 4 C; UNK is unkempt and MSI1 is Musashi-1; names of the RNAs are library labels; protein concentration not given here; high values mean tight binding

In order of rising binding signal:
1. B21  0.586 enrichment R
2. B8  0.713 enrichment R
3. B7  0.714 enrichment R
4. B10  0.722 enrichment R
5. B4  0.756 enrichment R
6. B14  0.786 enrichment R
7. B22  0.819 enrichment R
8. B13  0.882 enrichment R
9. B18  0.935 enrichment R
10. B15  0.938 enrichment R
11. B3  0.956 enrichment R
12. B1  0.958 enrichment R
13. B17  0.958 enrichment R
14. B2  1.01 enrichment R
15. B19  1.02 enrichment R
16. B20  1.04 enrichment R
17. B12  1.08 enrichment R
18. B9  1.4 enrichment R
19. B6  1.99 enrichment R
20. B5  2.16 enrichment R
21. B11  2.5 enrichment R
22. B16  2.61 enrichment R
